Laboratory results published in PubChem BioAssay AID686971 (National Center for Advancing Translational Sciences (NCATS), 2013).
Screen size: about 360,000 compounds; about 7,500 (2.1%) were called active. The inconclusive results got no clear call from the source; some entries with a clear call stand among them for comparison. Calls follow the shape of the dose curve; as a rule, active = well fitted cell-killing curve with a large enough effect; inconclusive = small, poorly fitted or top-dose-only effect, or effect the other way, or another doubt; inactive = no such curve, though single readings can be large or run the other way. Potencies of inconclusive entries are left out as doubtful fits.

Test: qHTS for induction of synthetic lethality in tumor cells producing 2HG: qHTS for the HT-1080-IDH1KD cell line;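 as to activity, negative = toxicity: 0% = DMSO wells and -100% = cell-free medium wells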
Details: HT-1080 IDH1 knockdown viability, ATP luminescence, 48 h; activity, negative = toxicity: at 46.1 µM (top of the series) unless noted
Procedure, shortened: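 After a 2 h attachment period, IDH1KD HT-1080 cells took pin-transferred compound for 48 h at 37 °C; ATP-based luminescence after 10 min room-temperature reagent incubation reported viability.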
Potency is read from the fitted curve at half-maximal effect; tags tell the direction and shape of the fitted curve.

| SMILES | Potency | activity, negative = toxicity |
| --- | --- | --- |
| COc1ccccc1N1CCN(C(=O)c2ccc3c(Cl)c4c(nc3c2)CCCC4)CC1 | inconclusive [cytotoxic, single point] | – |
| CCOC(=O)C1CCN(C(=O)CCc2c(C)nc3cc(-c4ccc(OC)cc4OC)nn3c2C)CC1 | – | inactive: 20.8% |
| NS(=O)(=O)c1ccc(N2C(=O)C3CC=CCC3C2=O)cc1 (centres undefined) | – | inactive: 7.38% |
| CCOC(=O)[C@]12CCCC=C1N(CCc1ccc(OC)c(OC)c1)C(=O)[C@H](CC(=O)NCC13CC4CC(CC(C4)C1)C3)C2 | inconclusive [cytotoxic, single point] | – |
| COc1cnc(-c2ccccn2)nc1N(C)C | active: 5.8 µM | – |
| CCOc1ccc(-n2c(SCC(=O)Nc3ccc(OC)cc3)nc3sc4c(c3c2=O)CCN(C)C4)cc1 | inconclusive [cytotoxic, partial curve] | – |
| Cn1c(NNC(=O)C2CCCCC2)cc(=O)n(C)c1=O | – | inconclusive: 31.3% |
| COc1cc(CN2CCN(c3cc(C)ccc3C)CC2)cc([N+](=O)[O-])c1O | inconclusive [cytotoxic, single point] | – |
| O=C(COc1ccc(Br)cc1)NCCCNC(=O)c1cnccn1 | inconclusive [rising, partial curve] | – |
| COc1ccc2c(CC(=O)OCC(=O)N3CCc4ccccc43)coc2c1 | – | inactive: 0.0573% |
| COC(=O)[C@]12CCCCC=C1N(Cc1cccc3ccccc13)C(=O)[C@H](CC(=O)NCc1ccccc1)C2 | inconclusive [cytotoxic, partial curve] | – |
| O=C(CSc1nc2ccc([N+](=O)[O-])cc2s1)NC1CCS(=O)(=O)C1 (centres undefined) | – | inconclusive: 12% |
| Oc1ccc(N=Cc2ccc(O)c(O)c2)cc1 | inconclusive [cytotoxic, single point] | – |
| CCC(CC)COC(=O)C1=C(C)NC(=O)NC1c1ccc2c(c1)OCO2 (centres undefined) | inconclusive [cytotoxic, single point] | – |
| Cc1cc(O)c(C2(O)C(=O)Nc3cc(Br)ccc32)cc1C (centres undefined) | inconclusive [cytotoxic, single point] | – |
| CN1CCN(C(=O)C[C@@H]2C[C@H]3c4cc(NC(=O)c5cccnc5)ccc4O[C@H]3[C@H](CO)O2)CC1 | – | inactive: 13.6% |
| COc1ccc(OCCNc2cc(N3CCCCC3)ccc2[N+](=O)[O-])cc1 | – | inactive: -2.8% |
| COc1cc(SC)ccc1C(=O)Nc1ccc(S(=O)(=O)N2CCCC2)cc1 | – | inactive: -23.1% |
| CN(C)/C=C1\C(=O)N(c2ccc([N+](=O)[O-])cc2)N=C1c1ccccc1 | inconclusive [cytotoxic, partial curve] | – |
| CCc1ccccc1OC[C@@H](O)CN[C@H]1CCCc2ccccc21 | inconclusive [cytotoxic, single point] | – |
| COc1ccc(-c2nc(-c3ccccc3)c(-c3cc([N+](=O)[O-])ccc3C)[nH]2)cc1O | inconclusive [cytotoxic, single point] | – |
| O=C(Nc1ccc(C(=O)N2CCCc3ccccc32)cc1)c1cccs1 | – | inactive: -2.08% |
| NC(CCc1ccccc1)c1csc(NC(=O)NCCc2ccccc2)n1 (centres undefined) | active: 16.4 µM | – |

| SMILES | Potency | activity, negative = toxicity |
| --- | --- | --- |
| CCN1CCN(c2ccc(NC(=O)c3ccc([N+](=O)[O-])o3)cc2Cl)CC1 | active: 13 µM | – |
| NNc1nc(-c2ccccc2)cc(-c2ccc(Br)cc2)n1 | inconclusive [cytotoxic, single point] | – |
| CCCCc1ccc(Nc2ncnc3nc[nH]c23)cc1 | – | inactive: 1.64% |
| CCOC(=O)[C@]12CCCC=C1N(Cc1ccccc1)C(=O)[C@H](CC(=O)NCC1CCCCC1)C2 | – | inactive: -10.7% |
| CCCCN1C(=O)C(CC(=O)NCc2cccs2)CC(C(=O)N(C(C)C)C(C)C)=C1C (centres undefined) | – | inactive: 1.69% |
| CCN(CC)CCCNC(=O)C1CCN(c2ncnc3c2sc2cccc(F)c23)CC1 | inconclusive [cytotoxic, single point] | – |
| COc1ccc(Cc2c(-c3ccco3)nc3c(C)cc(Br)cn23)c(C)c1 | active: 6.51 µM | – |
| Cc1c(C#N)c(NC(=O)CCl)n(Cc2ccccc2)c1C | active: 1.64 µM | – |
| COc1ccc(C(=O)NCC(=O)N/N=C/c2ccc([N+](=O)[O-])o2)cc1OC | active: 14.6 µM | – |
| COc1ccc2cc(C(N)=O)/c(=N\NC(=O)c3ccccc3)oc2c1 | – | inactive: -8.32% |
| COc1ccc(NC(=O)Cn2nnc(-c3ccccc3NS(=O)(=O)c3ccccc3)n2)cc1 | inconclusive [cytotoxic, partial curve] | – |
| CN(C)c1ccc(/C=C2\SC(=O)N(CC(O)Cn3c4ccccc4c4ccccc43)C2=O)cc1 (centres undefined) | – | inconclusive: -31.6% [cytotoxic] |
| COC1=CC(=O)C(OC)=C(OC)C1=O | inconclusive [cytotoxic, single point] | – |
| COc1ccc(N2CCN(Cc3nc(-c4ccc(Cl)cc4Cl)no3)CC2)cc1 | inconclusive [cytotoxic, single point] | – |
| Cc1ccc(OCC(=O)N(c2ccccn2)C2CCCCC2)c(C)c1 | – | inactive: 18.3% |
| O=C(Nc1ccc(F)cc1F)c1ccc(COc2c(F)c(F)cc(F)c2F)o1 | inconclusive [cytotoxic, single point] | – |
| CC(C)(C)c1cc(NC(=O)Nc2ccc(Cl)cc2Cl)no1 | inconclusive [cytotoxic, single point] | – |
| CCOc1cccc(CNc2ccc(O)cc2)c1OCc1ccc(Cl)cc1Cl | active: 20.6 µM | – |
| O=C1Nc2ccccc2NC(c2ccc3c(c2)OCO3)=C1N(Cc1ccc(F)cc1)C(=O)c1ccco1 | inconclusive [cytotoxic, single point] | – |
| Cc1nc2sc3c(NCc4ccco4)ncnc3c2c2c1COC(C)(C)C2 | inconclusive [cytotoxic, single point] | – |
| Cc1cccc2sc(NC(=O)CN(C)S(=O)(=O)c3ccc(Br)s3)nc12 | inconclusive [cytotoxic, partial curve] | – |
| COC(=O)Cc1[nH]n(-c2nc3ccccc3s2)c(=O)c1C(C)=Nc1ccc(OC)cc1 | inconclusive [cytotoxic, partial curve] | – |
| CC(C)c1cccc(-c2csc(C(C)(O)c3cccc(F)c3)n2)c1 (centres undefined) | inconclusive [cytotoxic, single point] | – |

| SMILES | Potency | activity, negative = toxicity |
| --- | --- | --- |
| COc1ccc(-c2csc(C(C)(NC(C)=O)c3ccc(OC)cc3)n2)cc1 (centres undefined) | – | inactive: 15% |
| CC1=C(C)/C(=N/OC(=O)c2cccc([N+](=O)[O-])c2)C=CC1=O | active: 18.4 µM | – |
| O=C(O)Cc1ccc(N=Cc2c(O)ccc3ccccc23)cc1 | inconclusive [cytotoxic, single point] | – |
| CCc1ccccc1Oc1nc(NCc2ccccc2)nc2ccsc12 | inconclusive [cytotoxic, single point] | – |
| CCOC(=O)C1=C(O)c2ccccc2C(=O)/C1=C\c1ccc(CC)cc1 | active: 8.91 µM | – |
| COC(=O)CS(=O)(=O)c1nnc([C@H](Cc2ccccc2)NC(=O)OC(C)(C)C)o1 | inconclusive [cytotoxic, single point] | – |
| C=C[C@@H]1c2c(F)cccc2N(S(=O)(=O)c2ccc(C)cc2)[C@H](c2ccc(OC(C)=O)cc2)C1(C#N)C#N | inconclusive [cytotoxic, single point] | – |
| CC(=O)Nc1ccc(Nc2cc(C)nc3c(-c4ccc(Cl)cc4)cnn23)cc1 | inconclusive [cytotoxic, partial curve] | – |
| CCCCCCCCN1C(=O)[C@H](CC(=O)N2CCCC2)C[C@@]2(C(=O)OC)CC(C)(C)CC=C12 | inconclusive [cytotoxic, single point] | – |
| CCC(c1nnnn1Cc1ccccc1)N(Cc1ccco1)Cc1cc2cc(OC)ccc2[nH]c1=O (centres undefined) | inconclusive [cytotoxic, single point] | – |
| CCOc1cc2c(cc1O)C(=NOC)CC1C2CCC2(C)C(O)CCC12 (centres undefined) | active: 1.46 µM | – |
| N#CCn1cc(/C=N/NC(=O)c2cc3c(ccc4ccccc43)o2)c2ccccc21 | active: 9.2 µM | – |
| O=C(O)c1cc(-c2ccc3ccccc3c2)nc2ccc(F)cc12 | inconclusive [cytotoxic, single point] | – |
| Cn1c(=O)c(C(=O)Nc2ncccc2O)c(O)c2ccccc21 | inconclusive [cytotoxic, single point] | – |
| CC(C)[C@H](NC(=O)c1ccccc1)C(=O)OCC(=O)c1ccc(S(=O)(=O)N2CCCCC2)cc1 | – | inactive: -0.497% |
| O=C(CCS(=O)(=O)c1ccc(F)cc1)N1CCOCC1 | – | inactive: 9.77% |
| CCCCc1cc(=O)oc2c(C)c(OCC(=O)N3CCCC3)ccc12 | – | inactive: -0.746% |
| COc1ccc(NC(=O)c2c(NC(=O)CNCC(C)C)sc3c2CCC3)c(OC)c1 | inconclusive [cytotoxic, partial curve] | – |
| Cc1ccccc1-c1nc(-c2ccc(NC(=O)c3ccc4c(c3)OCO4)cc2)no1 | inconclusive [cytotoxic, single point] | – |
| Cc1ccc(-c2nc3ccccc3o2)cc1NC(=S)NC(=O)/C=C/c1ccco1 | inconclusive [cytotoxic, partial curve] | – |
| O=S(=O)(c1ccc(Oc2ncnc3scc(-c4ccccc4)c23)cc1)N1CCOCC1 | – | inactive: -13.9% |
| Cc1ccc(CNC(=O)C2(NC(=O)Nc3ccc(C)cc3)CCCCC2)cc1 | – | inconclusive: -8.53% [cytotoxic] |
| O=C(O)c1ccc(N=Cc2c(O)ccc3ccccc23)cc1 | inconclusive [cytotoxic, single point] | – |
